The campaign covered roughly 4,800 compounds. About 420 (8.8%) showed an effect of 50% or more. The list shows a part of the results.
What follows are compounds tested on Plasmodium falciparum (assay: Confirmatory screen in NF54 nanoGlo assay, in single point, at 2uM, 72h). Conditions: timepoint 72 hour.
Type: functional, Erythrocyte
In the case of `CCn1nccc1C(=O)N1CC[C@H](CC(=O)N(C)Cc2ccccc2)C1`, the “% Inhibition” value is reported as -8%.
`CC(C)OC(=O)N(CCOC(=O)Nc1cccc(Cl)c1)CCOC(=O)Nc1cccc(Cl)c1` was tested, and the “% Inhibition” value was -15%.
For `Cc1ccccc1-c1cc2c(N3CCN(C4CCCCC4)CC3)nccn2n1`, the “% Inhibition” value was -4%.
`Nc1ccc(Cl)c(NC2=NN(c3c(Cl)cc(Cl)cc3Cl)C(=O)C2)c1` was tested, and the “% Inhibition” value was 0%.
For `O=C1c2[nH]nc(-c3cccs3)c2[C@@H](c2cccc(O)c2)N1c1nccs1`, the “% Inhibition” value was -3%.
For `Cc1ccc(NC(=O)CN2N=C(C(=O)Nc3ccccc3)CCC2=O)cc1`, the “% Inhibition” value was -18%.
`CCOCCN(C)Cc1n[nH]c(C)c1C(=O)OCC` was tested, and the “% Inhibition” value was -7%.
For `CC[n+]1c(/C=C/N(C)c2ccccc2)oc2ccccc21`, the “% Inhibition” value was 80%.
`Nc1nc(-c2ccc(N3CCCC3)cc2)cs1` was tested, and the “% Inhibition” value was -5%.
In the case of `COC(=O)CN(CC(=O)Nc1ccc(C)c(C)c1)Cc1cnn(C)c1`, the “% Inhibition” value is reported as -10%.
With `Cc1ccc[n+](Cc2ccc3ccccc3n2)c1` the “% Inhibition” value was 53%.
`CCOC(=O)c1cc(-c2ccccc2)nnc1Oc1ccccc1` was tested, and the “% Inhibition” value was 1%.
In the case of `COc1ccc(C(=O)N(C(=O)c2ccc(OC)cc2)c2c3c(nc4ccccc24)CCCC3)cc1`, the “% Inhibition” value is reported as 72%.
For `Cc1nn(C(F)F)c(C)c1S(=O)(=O)Nc1ncn(Cc2ccccc2Cl)n1`, the “% Inhibition” value was -5%.
For `CCCn1c(C(=O)N2CCOCC2)cc2sccc21`, the “% Inhibition” value was 2%.
`COc1cc([C@H]2CC(=O)Nc3c2cnn3C)ccc1OCc1ccccc1` was tested, and the “% Inhibition” value was -10%.
For `Cc1cc(C)cc(-c2nnc(NC(=O)N3CCC[C@@H]3CO)s2)c1`, the “% Inhibition” value was -8%.
In the case of `CCCn1c(C)ccc(-c2noc(CCC(=O)NCc3cccnc3)n2)c1=O`, the “% Inhibition” value is reported as -6%.
For `CCCCN1CCN(C(=O)CN2CCN(Cc3ccc(F)cc3Cl)C2=O)CC1`, the “% Inhibition” value was -8%.
`CC(=O)N(C)CC(=O)Nc1ccccc1NCC1CCCCC1` was tested, and the “% Inhibition” value was -1%.
In the case of `O=C(Nc1ccc(OC(F)F)cc1)c1cc(C2CC2)nc2c1c(C1CC1)nn2-c1ccccc1`, the “% Inhibition” value is reported as -7%.
`O=C(Nc1cccc(OCCn2cncn2)c1)[C@@H]1CCCc2ccccc21` was tested, and the “% Inhibition” value was -8%.
For `O=C(Nc1cc(-c2onc3c2CCCC3)cc(C(F)(F)F)c1)c1cncc(Br)c1`, the “% Inhibition” value was 95%.
With `CCc1ccc(C(=O)N2CCCN(c3nc(C4CCOCC4)nc4c3cnn4-c3ccccc3)CC2)cc1` the “% Inhibition” value was 29%.
With `O=C(C[C@H]1CCN(C(=O)C2CCC2)C1)NCc1ccccc1` the “% Inhibition” value was -1%.
For `CC(=O)Nc1cc(C)c(S(=O)(=O)O)cc1C`, the “% Inhibition” value was 5%.
For `CN1CCC2(CC1)Nc1ccccc1-c1nc(-c3ccco3)nn12`, the “% Inhibition” value was 4%.
`C[C@H]1CN(C(=O)c2cc(Cl)cc(Br)c2F)CCS1(=O)=O` was tested, and the “% Inhibition” value was 2%.

Reference: ChEMBL document CHEMBL4888484, “Replenishing the malaria drug discovery pipeline: Screening and hit evaluation of the MMV Hit Generation Library 1 (HGL1) against asexual blood stage Plasmodium falciparum ,using a nano luciferase reporter read-out” (2022)
